The supplement of paper PMC8183993
Where a name gives a salt, the structure may show the parent alone. ± gives the standard deviation of the averaged measurements. In all, about 3,100 compounds were measured (“mean cytoplasmic OPP incorporation (global translation) relative to DMSO”: median about 100, lowest 2% from about 56 on). This is one part of the list.

system: U2OS; assay: mean cytoplasmic OPP incorporation (global translation) relative to DMSO (% of DMSO); higher = more protein synthesis; settings: 10 µM; 24 h
Experimental: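 Primary image-based screen in U2OS cells: compounds at 10 uM for 24 h, then a 1 h o-propargyl-puromycin (OPP) pulse, click labelling, and high-throughput microscopy. Mean cytoplasmic OPP intensity and nuclei count were normalised to DMSO wells within each plate (DMSO = 100) and averaged over triplicate plates.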

Structure (SMILES)	mean cytoplasmic OPP incorporation
CCC1(c2ccc(N)cc2)CCC(=O)NC1=O (stereo unspecified) [Glutethimide, para-amino]	98.8
CCN(C)C(=O)Oc1cccc([C@H](C)N(C)C)c1 [Rivastigmine]	114
CC[C@@]1([C@@H]2O[C@@H]([C@H]3O[C@@](O)(CO)[C@H](C)C[C@@H]3C)C[C@@H]2C)CC[C@H]([C@]2(C)CC[C@]3(C[C@H](O)[C@@H](C)[C@@H]([C@@H](C)[C@@H](OC)[C@H](C)C(=O)O)O3)O2)O1 [Monensin sodium salt]	107
CC[C@@]1([C@@H]2O[C@@H]([C@H]3O[C@@](O)(CO)[C@H](C)C[C@@H]3C)C[C@@H]2C)CC[C@H]([C@]2(C)CC[C@]3(C[C@H](O)[C@@H](C)[C@@H]([C@@H](C)[C@@H](OC)[C@H](C)C(=O)O)O3)O2)O1 [Monensin sodium salt (Coban)]	103
C[C@@H]1O[C@@H](O[C@H]2C[C@@H](O)[C@]3(CO)[C@H]4[C@H](O)C[C@]5(C)[C@@H](C6=CC(=O)OC6)CC[C@]5(O)[C@@H]4CC[C@]3(O)C2)[C@H](O)[C@H](O)[C@H]1O [Ouabain]	47 ± 1.8
CN1[C@@H]2CC[C@H]1C[C@@H](OC1c3ccccc3CCc3ccccc31)C2 [Deptropine citrate]	113
Cc1nc(N)sc1CCN [Amthamine dihydrobromide]	107
NCC(O)c1ccc(O)cc1 (racemic) [(+,-)-Octopamine hydrochloride]	104
CCCOc1ccc2[nH]cc(C3=CCNCC3)c2n1	103
COc1ccc(Cc2nccc3cc(OC)c(OC)cc23)cc1OC [Papaverine hydrochloride]	97
CCC1(CC)C(=O)C=CNC1=O [Pyrithyldione]	100
C[C@]12CC[C@H]3[C@@H](CC[C@@]45O[C@@H]4C(O)=C(C#N)C[C@]35C)[C@@H]1CC[C@@H]2O [Trilostane]	104
O=C1CSC(c2ccccc2Cl)c2cc(Cl)ccc2N1 (stereo unspecified)	101
C=C(C)[C@H]1Cc2c(ccc3c2O[C@@H]2COc4cc(OC)c(OC)cc4[C@@H]2C3=O)O1 [Rotenone]	106
COC(=O)C1=CCCN(C)C1 [Arecoline]	102
CC(CN)CC(=O)O (stereo unspecified) [3-Methyl-GABA]	102
Fc1ccc(C(OCCN2CCN(CCCc3ccccc3)CC2)c2ccc(F)cc2)cc1	99.39 ± 0.44
CC(C)(C)NCC(O)c1cc(Cl)c(N)c(Cl)c1 (stereo unspecified) [Clenbuterol hydrochloride]	103
CC(C)(c1ccc(OCC2CO2)cc1)c1ccc(OCC2CO2)cc1 (stereo unspecified)	98.1 ± 1.6
CC(C)N(CCNC(=O)CN1CCCC1=O)C(C)C [Pramiracetam]	99.2
CNCC(=O)c1ccc(O)c(O)c1 [Adrenalone HCl]	98.9
CCCN(CCC)C1CCc2ccc(O)cc2C1 (stereo unspecified) [7-Hydroxy-DPAT hydrobromide]	100

Structure (SMILES)	mean cytoplasmic OPP incorporation
C[C@](O)(COc1ccc(C#N)cc1)C(=O)Nc1ccc(C#N)c(C(F)(F)F)c1 [Ostarine (MK-2866)]	95.5
CC(N)Cc1c[nH]c2ccc(O)cc12 (stereo unspecified) [_-Methyl-5-hydroxytryptamine maleate]	108
Oc1ccc2c3c1O[C@H]1c4c(c5ccccc5n4Cc4ccccc4)C[C@@]4(O)C(C2)N(CC2CC2)CC[C@]314 [N-Benzylnaltrindole hydrochloride]	111
BrC1C(Br)C(Br)C(Br)C(Br)C1Br (stereo unspecified) [1,2,3,4,5,6-Hexabromocyclohexane]	97.7
COc1ccc(CCN2CCC(Nc3nc4ccccc4n3Cc3ccc(F)cc3)CC2)cc1 [Astemizole]	112 ± 2.2
CC(=O)Nc1ccc(OC[C@](C)(O)C(=O)Nc2ccc([N+](=O)[O-])c(C(F)(F)F)c2)cc1 [Andarine (GTX-007)]	94.5
Oc1cc2c(cc1O)[C@H]1c3ccccc3CN[C@@H]1CC2 (racemic) [Dihydrexidine hydrochloride]	101
CC(=O)O[C@H]1C[C@H](O[C@H]2[C@@H](O)C[C@H](O[C@H]3[C@@H](O)C[C@H](O[C@H]4CC[C@@]5(C)[C@H](CC[C@@H]6[C@@H]5C[C@@H](O)[C@]5(C)[C@@H](C7=CC(=O)OC7)CC[C@]65O)C4)O[C@@H]3C)O[C@@H]2C)O[C@H](C)[C@H]1O[C@@H]1O[C@H](CO)[C@@H](O)[C@H](O)[C@H]1O [Lanatoside C]	27.8
C[C@]12N[C@H](Cc3ccccc31)c1ccccc12 [Dizocilpine maleate]	98.7
C[N+]1([O-])[C@@H]2C[C@@H](OC(=O)[C@H](CO)c3ccccc3)C[C@H]1[C@@H]1O[C@@H]12 (stereo partly specified) [Scopolamin-N-oxide hydrobromide]	96.7
CCC(=O)CCCCC[C@@H]1NC(=O)[C@H]2CCCCN2C(=O)[C@H]([C@@H](C)CC)NC(=O)[C@H](Cc2cn(OC)c3ccccc23)NC1=O [Apicidin]	72.9 ± 6.7
CCN(CC)C(C)C(=O)c1ccccc1 (stereo unspecified) [Amfepramone hydrochloride]	99.7
COC(=O)/C=C/C(=O)N[C@@H]1CC[C@@]2(O)[C@H]3Cc4ccc(O)c5c4[C@@]2(CCN3CC2CC2)[C@H]1O5 [_-Funaltrexamine hydrochloride]	93.8
O[C@@H]1CCCC[C@H]1N1CCC(c2ccccc2)CC1 [L(-)-vesamicol hydrochloride]	104
O=C1CCCN1CC#CCN1CCCC1 [Oxotremorine sesquifumarate]	101
CC(C)n1cnc2c(C(=O)N[C@H]3CN4CCC3CC4)cc(Cl)cc21	106
Oc1cc(Cl)ccc1Oc1ccc(Cl)cc1Cl [Triclosan]	116
CC1(C)C(C=C(Cl)Cl)C1C(=O)OC(C#N)c1cccc(Oc2ccccc2)c1 (stereo unspecified) [Cypermethrin]	105
CCC(C)C1O[C@]2(C=C[C@@H]1C)C[C@@H]1CC(C/C=C(\C)[C@@H](OC3C[C@H](OC)[C@@H](OC4C[C@H](OC)[C@@H](O)[C@H](C)O4)[C@H](C)O3)[C@@H](C)/C=C/C=C3\COC4[C@H](O)C(C)=CC(C(=O)O1)[C@]34O)O2 (stereo partly specified) [Avermectin B1a]	104
c1cc(Cc2cnc[nH]2)ccn1 [Immethridine dihydrobromide]	88.1
CC1=C(O)C(=O)C=C2C1=CC=C1[C@@]2(C)CC[C@@]2(C)[C@@H]3C[C@](C)(C(=O)O)CC[C@]3(C)CC[C@]12C [Celastrol]	100
CC(=O)Oc1ccc(/C=C/c2cc(OC(C)=O)cc(OC(C)=O)c2)cc1 [Triacetylresveratrol]	103

Structure (SMILES)	mean cytoplasmic OPP incorporation
OC1CCCCC1N1CCC(c2ccccc2)CC1 (racemic) [(±)-Vesamicol hydrochloride]	103
CCCN1C[C@H](CSC)C[C@@H]2c3cccc4[nH]cc(c34)C[C@H]21 [Pergolide mesylate]	102.7 ± 1
N.N.[Cl][Pt][Cl] [Cisplatin]	106
Oc1ccc2c3c1O[C@H]1c4[nH]c5c(c4C[C@@]4(O)[C@@H](C2)N(CC2CC2)CC[C@]314)C[C@@]1(O)[C@H]2Cc3ccc(O)c4c3[C@@]1(CCN2CC1CC1)[C@H]5O4 [nor-Binaltorphimine dihydrochloride]	102
C[N+]1(C)CCc2cc3c(cc2C1C1OC(=O)c2c1ccc1c2OCO1)OCO3 (single isomer, unassigned; (-)) [(-)-Bicuculline methobromide]	115
C[C@H]1CCC/C=C/[C@@H]2C[C@H](O)C[C@H]2[C@H](O)/C=C/C(=O)O1 [Brefeldin A]	75 ± 10
CN1c2ccccc2C(NCCCCCCC(=O)O)c2ccc(Cl)cc2S1(=O)=O (stereo unspecified) [Tianeptine]	100
CN1c2ccccc2C(NCCCCCCC(=O)O)c2ccc(Cl)cc2S1(=O)=O (stereo unspecified) [Tianeptine sodium]	103
CN1CCN(c2ccc([N+](=O)[O-])c3no[n+]([O-])c23)CC1	98.2
CCC(=O)O[C@@](Cc1ccccc1)(c1ccccc1)[C@@H](C)CN(C)C [Levopropoxyphene napsylate]	116
N#Cc1nn(-c2c(Cl)cc(C(F)(F)F)cc2Cl)c(N)c1[S+]([O-])C(F)(F)F (stereo unspecified) [Fipronil]	97.1
CC[N+](CC)(CCCNC1=CC(=O)C(NCCC[N+](CC)(CC)Cc2ccccc2)=CC1=O)Cc1ccccc1 [Benzoquinonium dibromide]	101
CC(C)C[C@@H](N)C1(c2ccc(Cl)cc2)CCC1	91.4
CC[C@@]1(O)C(=O)OCc2c1cc1n(c2=O)Cc2cc3ccccc3nc2-1 [Camptothecine (S,+)]	59.4
CC[C@@]1(O)C(=O)OCc2c1cc1n(c2=O)Cc2cc3ccccc3nc2-1 [Camptothecin]	80.8
CO/C1=C\C(C)=C\[C@@H](C)[C@@H](O)[C@@H](C)C/C(C)=C/C=C/[C@H](OC)[C@@H]([C@@H](C)[C@@H](O)[C@H](C)[C@@]2(O)C[C@@H](O)[C@H](C)[C@@H](C(C)C)O2)OC1=O [Bafilomycin A1]	111.4 ± 0.73
NC1(c2ccccc2Cl)CCCCC1=O (stereo unspecified) [Norketamine hydrochloride]	98.9
O=C1NC(=O)c2c1c1c3ccccc3[nH]c1c1[nH]c3ccccc3c21 [Arcyriaflavin A]	82.7
COc1cccc(C2(O)CCCCC2CN(C)C)c1 (stereo unspecified) [Tramadol hydrochloride]	96.8
CC(CCc1ccccc1)NC(C)C(O)c1ccc(O)cc1 (stereo unspecified) [Nylidrin]	97.4
CC(=O)OC1CN2CCC1CC2 (stereo unspecified) [Aceclidine Hydrochloride]	100
CCCN(C/C=C/I)C1CCc2ccc(O)cc2C1 (stereo unspecified) [7-Hydroxy-PIPAT maleate]	99.6
